These results are taken from PubChem BioAssay AID488969 (Vanderbilt High Throughput Screening Facility, 2010).

Over roughly 110,000 compounds, “z-score” has its median near -0.1; the highest 2% begin near 2. The list shows a part of the results. Calls of active or inactive are those of the source.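 Rule for the calls: active = z-score in the third read window above 3 or below -3; inactive = the rest.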 Residues, ends and D or L forms follow the SMILES beside them. *: point of attachment. Boc = CC(C)(C)OC(=O)*

The experiment has as its target Metabotropic glutamate receptor 8 (Rattus norvegicus) (UniProt P70579). Briefly: rat mGluR8 modulators via GIRK flux, primary screen, cell-based, thallium flux, HTS (AID 488969). The note with it: HEK293 rat mGluR8, GIRK (G protein-gated inwardly rectifying potassium channel) thallium flux, FluoZin2; at 10 µM; stronger effect = higher value; submaximal glutamate (EC20) added with thallium.
Chain of UniProt P70579 (P70579 whole entry, looked up): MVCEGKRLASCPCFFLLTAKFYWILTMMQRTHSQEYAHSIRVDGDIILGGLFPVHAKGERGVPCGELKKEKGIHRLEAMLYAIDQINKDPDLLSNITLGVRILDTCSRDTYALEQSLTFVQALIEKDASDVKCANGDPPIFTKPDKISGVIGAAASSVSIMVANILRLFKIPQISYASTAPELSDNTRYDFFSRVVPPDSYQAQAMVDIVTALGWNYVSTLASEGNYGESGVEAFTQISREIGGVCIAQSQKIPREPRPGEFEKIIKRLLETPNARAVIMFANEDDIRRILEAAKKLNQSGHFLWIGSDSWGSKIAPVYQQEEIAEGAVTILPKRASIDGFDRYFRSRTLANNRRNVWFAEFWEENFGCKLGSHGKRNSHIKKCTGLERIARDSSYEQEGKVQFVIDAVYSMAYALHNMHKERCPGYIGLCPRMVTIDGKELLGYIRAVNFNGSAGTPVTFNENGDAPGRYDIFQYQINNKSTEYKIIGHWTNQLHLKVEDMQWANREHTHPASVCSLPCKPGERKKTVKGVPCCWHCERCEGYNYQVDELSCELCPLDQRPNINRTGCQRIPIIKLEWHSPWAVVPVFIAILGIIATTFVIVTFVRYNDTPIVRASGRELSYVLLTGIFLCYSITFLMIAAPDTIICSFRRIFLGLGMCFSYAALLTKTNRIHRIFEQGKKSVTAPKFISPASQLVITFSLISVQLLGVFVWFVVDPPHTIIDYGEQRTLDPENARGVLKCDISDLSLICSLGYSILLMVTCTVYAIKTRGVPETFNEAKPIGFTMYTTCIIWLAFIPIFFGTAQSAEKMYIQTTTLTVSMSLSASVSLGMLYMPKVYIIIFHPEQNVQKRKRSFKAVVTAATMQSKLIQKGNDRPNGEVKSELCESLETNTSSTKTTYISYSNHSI
`c1cncc(-c2nnc(SCCSc3nnc(-c4cccnc4)o3)o2)c1` had a z-score of 1.14. As for `CC(=O)NNC(=S)NC(=O)c1cccc([N+](=O)[O-])c1`, the figure is -0.0668; as for `Cc1cccc(NC(=O)c2sc3nc(-c4ccc(F)cc4)cn3c2C)n1`, -0.613. `CCC(CC)NC(=O)c1cc([N+](=O)[O-])ccc1N1CCOCC1` gave a z-score of -0.182. To `CSc1nc2[nH]ncc2c(=O)[nH]1` belongs -0.284; to `Cc1ccccc1NC(=O)c1csc2c1CCCC2`, -0.435.

As for `N#CC1=C2SCC(O)(c3ccccc3)N2C(=O)CC1c1ccccc1` (stereo not given), the z-score is -1.02.

`CSc1ccccc1-n1nnnc1SCC(=O)NCc1cccs1`: the z-score is -0.276. To `C=CCOc1ccc2ccccc2c1CNCCCN1CCOCC1` belongs -1.52; to `Cc1cc(C)c(NC(=O)CSc2nc(COc3ccccc3)nc3ccccc23)c(C)c1`, -0.261; to `CCn1c(=O)n(CC)c2cc(S(=O)(=O)N3CCC(c4ccccc4)CC3)ccc21`, 0.0475. As for `O=C(NCc1cccc(Cl)c1)c1cnn2c1NC(c1ccco1)CC2C(F)(F)F` (stereo not given), the z-score is -0.766. To `C=C(C)Cn1c(SCC#N)nc2ccccc2c1=O` belongs -0.836. Regarding `O=C(NCc1ccco1)C12CN(Cc3ccccc3)CC1C(c1ccc([N+](=O)[O-])cc1)=NO2` (stereo not given), the z-score is -0.391.

`CCCc1nnc(NC(=O)Cn2c(=O)oc3ccccc32)s1`: the z-score came out at 0.508.

`COCCCNC(=O)c1cccs1` yielded a z-score of -0.314.

Regarding `O=C(Nc1ccccc1)c1ccccc1NC(=O)C(F)(F)F`, the z-score was -0.777. To `N#Cc1ccc(N=c2ssnc2Cl)cc1` belongs -0.00472. To `C=CCNC(=O)NC(=O)COn1nnc2ccc(S(=O)(=O)N(C)C)cc21` belongs -0.0477; to `CCOc1ccc(-c2nc(N)ncc2Oc2ccccc2Br)c(O)c1`, -0.0325.

As to `O=C1C=C(c2ccc(Cl)cc2)OC2(CCCC2)O1`, the z-score is -0.366.

With `COC(=O)CSc1nc(-c2ccccc2)nc2ccc(F)cc12`, the z-score was -0.132.

Regarding `CCCCNC(=S)Nc1cccc2cnccc12`, the z-score was -0.208. To `O=C(NCc1cccs1)C(NS(=O)(=O)c1cccc2nsnc12)c1ccccc1` (stereo not given) belongs 1.17; to `Cc1cc(Cl)ccc1Oc1nccc(N(C)C)c1C#N`, -0.182; to `COCCNC(=O)c1ccc(C)c(S(=O)(=O)Nc2ccc(C)cc2)c1`, 0.283. To `COc1ccc(C2(CNC(=O)c3ccco3)CCOCC2)cc1` belongs -0.0562; to `CCOC(=O)CSC1=C(C#N)C(c2sccc2C)CC(=O)N1` (stereo not given), -0.184. As for `COc1ccccc1OCCNc1cc(N2CCOCC2)ccc1[N+](=O)[O-]`, the figure is 1.94; as for `O=C(NC(=S)Nc1ccc(Cc2ccncc2)cc1)c1ccccc1Cl`, -0.459; as for `CC(=O)Nc1ccc2nc(C)n(Cc3ccc(Cl)cc3)c(=O)c2c1`, -0.376.

As to `c1ccc(-c2csc(N3CCCCCC3)n2)cc1`, the z-score came to 0.299. To `CN(CCOC(=O)c1ccc2c(c1)OCCO2)C(C)(C)C` belongs 0.228. The compound `CC(CN1CCN(C)CC1)OC(=O)c1ccccc1` (stereo not given) showed a z-score of -0.2. As for `CC(=O)Nc1cccc(NC(=O)CCn2c(=O)sc3ccccc32)c1`, the figure is -0.759; as for `Cc1cc(C)c2c(-n3cccc3)nn(CC#N)c2n1`, -0.306; as for `COc1ccc(C(=O)CSc2nnc(CN3CCCCC3)n2-c2ccc(F)cc2)cc1OC`, -0.157. To `O=C(/C=C/Nc1ccc(F)c(F)c1)c1cccs1` belongs 1.32.

The compound `Cc1ccnc(NC(=O)CN(C)S(=O)(=O)c2cccc3nsnc23)c1` returned a z-score of -0.106.

`NC(CSS(=O)(=O)O)=NCCC12CC3CC(CC(O)(C3)C1)C2` registered a z-score of -0.0219.

With `Nc1ncnc2nc(SCCN3CCCCC3)[nH]c12`, the z-score is -0.372. Consider `CCn1ncc(C2=NOC(C(=O)Nc3cnn(C45CC6CC(CC(C6)C4)C5)c3)C2)c1C` (stereo not given), for which the z-score stood at 0.247. To `O=C(c1cc(-c2ccccn2)nc2c(Cl)cccc12)N1CCN(S(=O)(=O)c2ccccc2)CC1` belongs -0.401; to `N#CC1=C(N)Oc2cc(Nc3ccccc3)ccc2C1c1ccncc1` (stereo not given), -0.0347. As for `CCOC(=O)/C(C#N)=C/c1c(OCC)n(CC)c2ccccc12`, the figure is -0.644; as for `O=C(NCCCN1CCCC1=O)c1csc2ccccc12`, -0.114; as for `CCN1CCN(C(c2cccs2)C(C)NC(=O)CC(C)C)CC1` (stereo not given), -0.418. To `O=C(CSc1nc2ccc([N+](=O)[O-])cc2[nH]1)NC1CCCCC1` belongs -0.124.

With `Cc1cc(C(=O)Nc2ccccc2)oc1C`, the z-score is -0.0105. To `COc1cc(OC)c(NC(=S)Nc2cccc(C)c2)cc1Cl` belongs -0.267.

Consider `O=C(N1CCOCC1)N1CCN(C(c2ccccc2)c2ccccc2)CC1`, for which the z-score is -0.304. To `COc1cccc(-c2cc(C(F)(F)F)n3ncc(S(=O)(=O)c4ccccc4)c3n2)c1` belongs -0.112.

`Cc1ccc(Nc2cnn(C34CC5CC(CC(CC(=O)O)(C5)C3)C4)c(=O)c2Cl)cc1C` registered a z-score of 0.781.

Regarding `O=C(NCc1ccccn1)c1cc(S(=O)(=O)N2CCN(c3ccccc3)CC2)ccc1Cl`, the z-score amounted to 0.714. As for `COC(=O)c1ccc(CSc2nnc(-c3ccncc3)n2Cc2ccccc2)o1`, the figure is -0.235. On to `CC(C)CC(NC(=O)OC(C)(C)C)C(=O)NC(C(=O)N1CCCC1C(N)=O)C(C)C` (stereo not drawn) (Boc-Leu-Val-Pro-NH2; configuration not given here), for which the z-score is -0.0933. To `Cc1sc(NC(=O)C2CCCCC2C(=O)O)c(C(N)=O)c1-c1ccc(C(C)C)cc1` (stereo not given) belongs -0.823; to `N/C(=N\OC(=O)c1ccc(Cl)cc1)c1nonc1N`, -0.12; to `Cc1ccc(/C=N/n2c(-c3cccs3)n[nH]c2=S)cc1`, active: 10. As for `COc1ccccc1-c1nc(C#N)c(NCc2ccc(F)cc2)o1`, the figure is 0.186; as for `COc1cc(NC(=S)Nc2cccc(Cl)c2Cl)c(OC)cc1Cl`, 0.605; as for `O=C(CSc1nc2ccccc2o1)Nc1nncs1`, 0.294. As for `COCCn1nnnc1C(c1cccs1)N1CCN(c2nc3ccccc3s2)CC1` (stereo not given), the figure is -0.204; as for `CCCCCNC(=O)CSC1=N/C(=C\c2ccc(Cl)c(Cl)c2)C(=O)N1CC`, -0.0131; as for `O=C(COC(=O)C1CCN(/C=C/C(=O)C(F)(F)F)CC1)Nc1ccccc1`, -0.035.

Take `Cn1cnnc1Sc1ccc(C(=O)OCC(=O)Nc2ccccc2)cc1[N+](=O)[O-]`: the z-score was -0.109. To `Cc1ccc(Cn2nc(C)c(NC(=O)C3(C)CC3(Br)Br)c2C)cc1` (stereo not given) belongs -0.0354; to `Cc1c(-c2nnc(SCC(=O)O)n2-c2ccccc2Br)nnn1-c1ccccc1`, -0.177. To `Cc1c(NC(=O)CSc2nnc(Nc3ccccc3)s2)c(=O)n(-c2ccccc2)n1C` belongs 0.78; to `CCC(C)C(NC(=O)OCc1ccccc1)C(=O)OCN1C(=O)c2ccccc2C1=O` (stereo not given), -0.104; to `N#Cc1sc2nc(-c3cccs3)cc(-c3ccc(Cl)cc3)c2c1N`, -0.0567. The compound `CC(OC(=O)c1nsc(Cl)c1Cl)C(=O)NCc1ccc2c(c1)OCO2` (stereo not given) returned a z-score of -0.0924. On to `C(=N\n1cnnc1)/c1ccc(OC2CSC2)cc1`, for which the z-score is -0.459. Consider `Cc1ccccc1-n1c(SC(C)C(=O)N2CCN(C)CC2)nc2ccccc2c1=O` (stereo not given), for which the z-score was found to be 0.712. As for `CCOC(=O)Cn1c(CN(Cc2ccccc2)Cc2ccccc2)nc2c1c(=O)n(C)c(=O)n2C`, the figure is -0.558. As for `O=C(Nc1ccc2c(c1)OCO2)c1ccc(Cl)s1`, the figure is -0.0699. To `COc1ccccc1OCC(O)CN1C(=O)NC(C)(C)C1=O` (stereo not given) belongs -0.0712; to `CCOC(=O)NCc1ccc2c(c1)cc(C)n2C`, -0.21; to `Cc1cc(Br)cc(C)c1NC(=O)c1ccccc1[N+](=O)[O-]`, -0.058. As for `C=CCOc1c(Br)cc(C2NC(=O)NC(C)=C2C(C)=O)cc1OCC` (stereo not given), the z-score is -0.802. As for `CCCN1C(=O)C2(C(C(=O)c3ccc(C)o3)=C(O)C(=O)N2CCCN2CCOCC2)c2ccccc21` (stereo not given), the figure is 0.745. To `CCOC(=O)c1oc2c(CN3CCN(C)CC3)c(O)ccc2c(=O)c1-c1ccc(Br)cc1` belongs -0.3. To `N#Cc1c(Cl)cccc1-n1ccnc1` belongs 0.187. As to `COc1cccc(OCC(O)CN2CCN(c3ccccn3)CC2)c1` (stereo not given), the z-score amounted to 0.0209. To `O=C(Nc1cccnc1)C(Cc1ccccc1)n1cccc1` (stereo not given) belongs 0.0231; to `COc1ccc(/C=N/NC(=O)COc2ccc3ccccc3c2)c(C(=O)O)c1OC`, -0.0431; to `CCOC(=O)c1cc(=O)n(Cc2ccccc2C)c2ccccc12`, -0.255. To `CN(C)S(=O)(=O)c1ccc(C(=O)NCCSc2ccccc2)cc1` belongs -0.262; to `N#Cc1cnc(SCC(=O)c2ccccc2)nc1N`, 0.0176; to `Nc1cccc2c1C(=O)N(C(=O)c1ccc(Cl)c(S(=O)(=O)N3CCCCCC3)c1)C2=O`, -0.285. To `CC1(C)CC(=O)C(C=Nc2ccc(Cl)cn2)=C(O)C1` belongs -0.475. `CC(=O)NCC(=O)OCC(=O)c1ccc(C)c(C)c1`: the z-score was determined as 0.748. `CC(=O)c1ccc(NC(=O)C(C)OC(=O)C(C)Oc2cccc(C)c2)cc1` (stereo not given): the z-score is -0.117. In turn, `O=c1oc(-c2ccc(F)cc2)nc2ccsc12` had a z-score of -2.44. `C=CCNC(=S)N1CCN(c2ncc3c(=O)c(C(=O)O)cn(CC)c3n2)CC1` registered a z-score of -0.0345.

Compound `CCOC(=O)N1CCN(Cc2nc3c(c(=O)[nH]c(=O)n3C)n2Cc2cc(C)ccc2C)CC1` came in with a z-score of 0.104. As to `Cc1sc2ncnc(Sc3ccccc3C(=O)Nc3ccc(C#N)cc3)c2c1C`, the z-score was -0.758. As for `CCN(CC)CCN1C(=O)C(=O)/C(=C(/O)c2ccc(Cl)cc2)C1c1ccncc1` (stereo not given), the figure is 0.0181. Compound `CC(=O)Nc1ccc(NC(=O)C2CCN(S(=O)(=O)c3cccc4nonc34)CC2)cc1` showed a z-score of -0.0835. As for `COc1ccc(CCNc2nc3c(c(=O)n(C)c(=O)n3C)n2C)cc1OC`, the figure is -0.21.

Consider `O=C(NC(=S)Nc1ccc(N2CCOCC2)cc1)c1cccc(Cl)c1`, for which the z-score is active: 4.95.

As to `CC(=O)Nc1sc(N/N=C\c2cccc(Cl)c2)nc1-c1cccs1`, the z-score is -0.618. As for `COc1ccc(C2CC(c3cccs3)=NN2C(=O)CSC2=NN3CCCC(=O)N=C3S2)cc1` (stereo not given), the figure is -0.108.

`CC1Oc2ccccc2N(CC(=O)c2cccc(Cl)c2)C1=O` (stereo not given) registered a z-score of -0.685. To `CCOc1cc(/C=N/NC(=O)CCCC(=O)NC2CCCCC2)ccc1O` belongs -0.134. As for `CSCC[C@H](NC(=O)c1nn(C)c(=O)c2ccccc12)c1nc2ccccc2[nH]1`, the figure is 0.17; as for `O=C(c1ccc(CN2CCOCC2)cc1)N1CCN(c2ccccc2F)CC1`, 0.0451. To `CCN(CC)CCOC(=O)C1(c2ccccc2)CCCC1` belongs 0.739.

The compound `CN=C(Nc1ccccc1)SC1CC(=O)N(c2ccc(C(=O)OC)cc2)C1=O` (stereo not given) showed a z-score of -0.385. The compound `Cc1nc2ccccc2cc1C(=O)NCc1ccco1` showed a z-score of -0.218.
